The list shows a part of the results.
Tested on: T1, C. trachomatis L2/434/Bu expressing GFP (CTL2-GFP)
T1 construct: L2/434/Bu GFP intracellular growth in HeLa cells
Design: species or system HeLa; C. trachomatis total inclusion area by high-content imaging, normalised to DMSO
Details: total inclusion area; 28.5 h, 10 µM; inhibitor
Summary of the method: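 After bulk GFP and resorufin fluorescence reads, cells were fixed, stained with Hoechst and imaged by high-content microscopy. Inclusion area and number (GFP) stood in for chlamydial growth, nuclei count (Hoechst) for host cell viability. MICs were derived as for the bulk readout.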

`Cc1ccc(S(=O)(=O)N(C)c2ccnc(N3CCN(C)CC3)n2)cc1` [CBK000671] was tested. Which “% of control remaining” value did it give?
Its value is 80.3674.

`Cc1cc(C)c(OCCNC(C)(C)C)c(Cl)c1` [CBK262713C] was tested. Which “% of control remaining” value did it give?
Its value is 86.0548.

With `COc1ccc(-c2ccc(Nc3cccc(N(C)C)c3)nc2)cc1OC` [CBK037606] as the compound, how does the “% of control remaining” value read?
The value was 85.4535.

How did the “% of control remaining” value turn out when `CC(C)(C)C(=O)CN1CCC2(CC1)NCCc1c2[nH]c2cc(F)ccc12` [CBK039568] was run?
The value was 105.142.

`COc1ccc(S(=O)(=O)N2CC[C@H]3NC(=O)N(c4ccc(C(C)C)cc4)C(=O)[C@H]32)cc1` [CBK289290] was tested. Which “% of control remaining” value did it give?
The value was 105.205.

For `COc1ccc(-c2nc3c(c(SCC(=O)O)n2)COC(C)(C)C3)cc1` [CBK286704], which “% of control remaining” value is on record?
Its value is 92.8637.

`O=C1C[C@@H]2CCN(C(=O)Nc3cccc(C(F)(F)F)c3)C[C@@H]2CCN1CCc1c[nH]cn1` [CBK288786] was tested. Which “% of control remaining” value did it give?
The value was 54.1557.

For `CN1CCC[C@H]1C(=O)Nc1ccc2[nH]ccc2c1` [CBK159699], which “% of control remaining” value is on record?
The value was 99.3675.

For `O=C(CSc1nnc(-c2ccncc2)n1C1CCCCC1)Nc1ncc2c(n1)CC(c1ccccc1)CC2=O` (stereo not drawn) [CBK266177], which “% of control remaining” value is on record?
Its value is 127.77.

For `O=C(OCc1ccccc1)Oc1cncc(C(=O)O)c1` [CBK262053], which “% of control remaining” value is on record?
Its value is 102.858.

`O=C(Cc1c[nH]c2ccccc12)N1CCC2(CCCN(CCO)C2)C1` (stereo not drawn) [CBK132045] was tested. Which “% of control remaining” value did it give?
Its value is 106.112.

With `CCN(CC)CCNC(=O)c1ccc(/C=N/O)nc1` [CBK288375] as the compound, how does the “% of control remaining” value read?
The value was 80.3417.

Which “% of control remaining” value does the source give for `O=C(Nc1cccc(F)c1)N(CCO)Cc1cccnc1` [CBK304860] here?
Its value is 47.8115.

Which “% of control remaining” value does the source give for `Cc1c(Cl)cccc1NC(=O)c1cnc2sccn2c1=O` [CBK246518] here?
Its value is 97.8028.

How did the “% of control remaining” value turn out when `CCCC/C=C/c1cnc(Nc2ccc(N3CCOCC3)cc2)c2nccn12` [CBK091239] was run?
The value was 119.088.

`O=C(NCc1ccc(OC(F)(F)F)cc1)c1cnoc1-c1ccc(Br)cc1` [CBK154885] was tested. Which “% of control remaining” value did it give?
The value was 95.7182.

How did the “% of control remaining” value turn out when `O=C(Nc1ccc(-c2ccc(F)cc2)cc1)c1ccc(N2C(=O)CCC2=O)cc1` [CBK285683] was run?
The value was 79.827.

With `COc1cccc(CNc2nccnc2-c2cccs2)c1OC` [CBK036784] as the compound, how does the “% of control remaining” value read?
The value was 142.184.

For `COc1ccc(OCCNC(=O)c2ccc(-c3ccc(C(C)=O)s3)nc2N(C)C(C)=O)cc1` [CBK076576], which “% of control remaining” value is on record?
Its value is 101.259.

How did the “% of control remaining” value turn out when `Cc1cccc([C@@H]2CN(Cc3ccccc3)C[C@]23CCCC(=O)N3)n1` [CBK283350] was run?
The value was 88.0052.

For `CC(C)(C)C(=O)NCCCC(=O)Nc1nc2ccc(Oc3ccccc3)cc2s1` [CBK296652], which “% of control remaining” value is on record?
The value was 73.8551.

With `Cc1ccnc2nc(C(=O)OC(C)C(=O)N3CCCC3)nn12` (stereo not drawn) [CBK306089] as the compound, how does the “% of control remaining” value read?
The value was 89.77.

Which “% of control remaining” value does the source give for `Cn1nccc1CN1CCCC(Cc2nc3ccccc3[nH]2)C1` (stereo not drawn) [CBK281892] here?
The value was 87.636.

With `CCOC(=O)C1(Cc2cc(-c3cccc(F)c3)no2)CCCNC1` (stereo not drawn) [CBK284578] as the compound, how does the “% of control remaining” value read?
Its value is 63.6305.

`CCN1c2ccc(-c3cncn3CCCn3ccnc3C)cc2CC1C` (stereo not drawn) [CBK281924] was tested. Which “% of control remaining” value did it give?
Its value is 105.438.

`O=C(CC1(O)C(=O)N(Cc2ccccc2)c2ccccc21)c1cc2ccccc2oc1=O` (stereo not drawn) [CBK293963] was tested. Which “% of control remaining” value did it give?
The value was 113.273.

Which “% of control remaining” value does the source give for `CC1CN(C(=O)/C=C/C(=O)O)c2ccccc2NC1=O` (stereo not drawn) [CBK286618] here?
The value was 46.1239.

With `O=C1CC2(C(=O)N1CCC1CCCCC1)C(=O)N(Cc1ccccc1)c1ccc(F)cc12` (stereo not drawn) [CBK075175] as the compound, how does the “% of control remaining” value read?
Its value is 119.35.

How did the “% of control remaining” value turn out when `CN(C(=O)[C@H]1CCCC[C@H]1C(=O)O)C1CCS(=O)(=O)C1` (stereo partly drawn) [CBK286782] was run?
The value was 88.3965.

For `Cc1ncsc1CCOc1ccc(C(F)(F)F)cn1` [CBK115790], which “% of control remaining” value is on record?
The value was 102.792.

For `Clc1ccc(COc2ccnc(N3CCCN(CC4CC4)CC3)n2)cc1Cl` [CBK083963], which “% of control remaining” value is on record?
The value was 66.5646.

How did the “% of control remaining” value turn out when `CCC(Oc1ccccc1C)C(=O)Nc1ccccc1C(=O)N(C)C` (stereo not drawn) [CBK270144] was run?
Its value is 60.444.

With `O=C(Cc1c[nH]c2ccccc12)N1Cc2ccccc2C1` [CBK200321] as the compound, how does the “% of control remaining” value read?
The value was 91.2475.

`COCCN(C)C(=O)c1cn2cc(-c3cc(C)oc3C)n(C)c(=O)c2n1` [CBK306605] was tested. Which “% of control remaining” value did it give?
The value was 82.0917.

`O=C1CC[C@@H](NCc2ccsc2)[C@H](c2cc(F)cc(F)c2)N1` [CBK282910] was tested. Which “% of control remaining” value did it give?
The value was 88.8824.

For `CCN1CCC2(CCC1=O)CN(Cc1noc(CC(C)C)n1)CCN2C` (stereo not drawn) [CBK306971], which “% of control remaining” value is on record?
The value was 58.7314.

Which “% of control remaining” value does the source give for `COc1cc(C(C)=O)ccc1OCCCN1CCC(O)(C(=O)c2ccc(F)cc2)CC1` [CBK025271C] here?
The value was 10.3311.

For `Cc1cc(NC(=O)C2CCN(CC3CCCO3)CC2)no1` (stereo not drawn) [CBK305544], which “% of control remaining” value is on record?
Its value is 32.9031.

`CCNC(=O)N1CC2(CCN(CCc3cccc4ccccc34)CC2)c2ccccc21` [CBK136965] was tested. Which “% of control remaining” value did it give?
The value was 72.5499.

With `CCN(CC(O)COc1cc(C)c(Cl)c(C)c1)S(=O)(=O)O` (stereo not drawn) [CBK026767N] as the compound, how does the “% of control remaining” value read?
Its value is 79.2706.

`Cc1cc(O)n2nc(CC(=O)NCCCn3c(C)cccc3=O)nc2n1` [CBK306532] was tested. Which “% of control remaining” value did it give?
The value was 80.5053.

How did the “% of control remaining” value turn out when `O=C(c1ccccc1)c1cc[n+](CCC[n+]2ccc(C(=O)c3ccccc3)cc2)cc1` [CBK278270B] was run?
The value was 96.6154.

`CCn1ncc2c1CCCC2NC1CCN(c2ccccc2)C1=O` (stereo not drawn) [CBK305144] was tested. Which “% of control remaining” value did it give?
The value was 105.795.

With `Cc1[nH]c2cc(C(=O)NCCn3nccc3C)ccc2c1C` [CBK283313] as the compound, how does the “% of control remaining” value read?
Its value is 84.4932.

With `CC(C)N(C(=O)c1ccccc1-c1cnc2cccnn12)C(C)C` [CBK306900] as the compound, how does the “% of control remaining” value read?
Its value is 121.225.

With `CCN(CC)CCOC1CCc2ccccc2CC1` [CBK016730C] as the compound, how does the “% of control remaining” value read?
Its value is 80.4609.

`Cc1nc(N)sc1-c1nnc(Nc2ccccc2)s1` [CBK267353] was tested. Which “% of control remaining” value did it give?
Its value is 109.973.

Which “% of control remaining” value does the source give for `CC1CCN(Cc2ccc(-c3ccc(CNC(=O)c4ccc5c(c4)OC(F)(F)O5)s3)cc2)CC1` [CBK166113] here?
The value was 60.0509.

Which “% of control remaining” value does the source give for `COc1ccc(/C=C(\C)C(=O)Nc2ccc(N3CCNCC3)c3ccccc23)cc1OC` [CBK038913T] here?
The value was 77.2421.

Which “% of control remaining” value does the source give for `CC1Cc2cc(CC(=O)N(C)CC(F)(F)F)ccc2O1` (stereo not drawn) [CBK283067] here?
The value was 72.8508.

How did the “% of control remaining” value turn out when `Cc1nn(C)c2ncc(S(=O)(=O)NCC(N)c3ccc(F)cc3F)cc12` (stereo not drawn) [CBK304303C] was run?
The value was 72.4702.

Source: PMC12040169 (PLOS Biology, 2025)
